Measured values from the supplement of paper PMC8728848.
This is one part of the list.

Assays:
Experiment in all cases: glycan array binding signal (z-score within array); higher = stronger binding
Details in all cases: glycan notation: IUPAC condensed, linker removed
[1] = molecular target: Fuc(a1-3)GlcNAc
Summary of the method: (§1)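 Columns mapping to the same glycan were averaged after glycan names were converted to IUPAC-condensed notation. The data come from 3228 arrays in the Consortium for Functional Glycomics database, limited to those with an available protein sequence. Binding is reported as a within-array Z-score averaged across arrays of one protein sequence and across linkers.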

[2] = molecular target: Fuc(a1-3)[Gal(b1-4)]Glc6S
Summary of the method: as §1

[3] = molecular target: Fuc(a1-3)[Gal(b1-4)]GlcNAc
Summary of the method: as §1

[4] = molecular target: Fuc(a1-3)[Gal(b1-4)]GlcNAc(b1-2)Man
Summary of the method: as §1

[5] = molecular target: Fuc(a1-3)[Gal(b1-4)]GlcNAc(b1-2)Man(a1-3)[Fuc(a1-3)[Gal(b1-4)]GlcNAc(b1-2)Man(a1-6)]Man(b1-4)GlcNAc(b1-4)GlcNAc
Summary of the method: as §1

[6] = molecular target: Fuc(a1-3)[Gal(b1-4)]GlcNAc(b1-2)Man(a1-3)[Fuc(a1-3)[Gal(b1-4)]GlcNAc(b1-2)Man(a1-6)]Man(b1-4)GlcNAc(b1-4)[Fuc(a1-6)]GlcNAc
Summary of the method: as §1

[7] = molecular target: Fuc(a1-3)[Gal(b1-4)]GlcNAc(b1-3)Gal(b1-3)[Fuc(a1-4)]GlcNAc
Summary of the method: as §1

[8] = molecular target: Fuc(a1-3)[Gal(b1-4)]GlcNAc(b1-3)Gal(b1-4)[Fuc(a1-3)]GlcNAc
Summary of the method: as §1

[9] = molecular target: Fuc(a1-3)[Gal(b1-4)]GlcNAc(b1-3)Gal(b1-4)[Fuc(a1-3)]GlcNAc(b1-3)Gal(b1-4)[Fuc(a1-3)]GlcNAc
Summary of the method: as §1

[10] = molecular target: Fuc(a1-3)[Gal(b1-4)]GlcNAc(b1-3)GalNAc
Summary of the method: as §1

[11] = molecular target: Fuc(a1-3)[Gal(b1-4)]GlcNAc(b1-6)GalNAc
Summary of the method: as §1

[12] = molecular target: Fuc(a1-3)[Gal(b1-4)]GlcNAc(b1-6)[Gal(b1-3)GlcNAc(b1-3)]Gal(b1-4)Glc
Summary of the method: as §1

[13] = molecular target: Fuc(a1-3)[Gal(b1-4)]GlcNAc6S
Summary of the method: as §1

[14] = molecular target: Fuc(a1-3)[Gal3S(b1-4)]Glc
Summary of the method: as §1

[15] = molecular target: Fuc(a1-3)[Gal3S(b1-4)]GlcNAc
Summary of the method: as §1

[16] = molecular target: Fuc(a1-3)[Gal3S(b1-4)]GlcNAc6S
Summary of the method: as §1

[17] = molecular target: Fuc(a1-3)[GalNAc(b1-4)]GlcNAc
Summary of the method: as §1

[18] = molecular target: Fuc(a1-3)[GalNAc(b1-4)]GlcNAc6S
Summary of the method: as §1

[19] = molecular target: Fuc(a1-4)GlcNAc
Summary of the method: as §1

[20] = molecular target: Fuc(b1-3)GlcNAc
Summary of the method: as §1

[21] = molecular target: Gal(a1-2)Gal
Summary of the method: as §1

[22] = molecular target: Gal(a1-3)Gal
Summary of the method: as §1

[23] = molecular target: Gal(a1-3)Gal(b1-3)GlcNAc
Summary of the method: as §1

[24] = molecular target: Gal(a1-3)Gal(b1-3)GlcNAc(b1-2)Man
Summary of the method: as §1

[25] = molecular target: Gal(a1-3)Gal(b1-3)GlcNAc(b1-2)Man(a1-3)[Gal(a1-3)Gal(b1-3)GlcNAc(b1-2)Man(a1-6)]Man(b1-4)GlcNAc(b1-4)GlcNAc
Summary of the method: as §1

[26] = molecular target: Gal(a1-3)Gal(b1-3)GlcNAc(b1-3)GalNAc
Summary of the method: as §1

[27] = molecular target: Gal(a1-3)Gal(b1-3)GlcNAc(b1-6)GalNAc
Summary of the method: as §1

[28] = molecular target: Gal(a1-3)Gal(b1-3)[Fuc(a1-4)]GlcNAc(b1-2)Man(a1-3)[Gal(a1-3)Gal(b1-3)[Fuc(a1-4)]GlcNAc(b1-2)Man(a1-6)]Man(b1-4)GlcNAc(b1-4)GlcNAc
Summary of the method: as §1

[29] = molecular target: Gal(a1-3)Gal(b1-4)Glc
Summary of the method: as §1

[30] = molecular target: Gal(a1-3)Gal(b1-4)GlcNAc
Summary of the method: as §1

B1: CBM40 CPF071 (Clostridium perfringens) (protein)
chain: MAHHHHHHVGTGSNDDDDKSPDPMLSSLGEYKDINLESSNASNITYDLEKYKNLDEGTIVVRFNSKDSKIQSLLGISNSKTKNGYFNFYVTNSRVGFELRNQKNEGNTQNGTENLVHMYKDVALNDGDNTVALKIEKNKGYKLFLNGKMIKEVKDTNTKFLNNIENLDSAFIGKTNRYGQSNEYNFKGNIGFMNIYNEPLGDDYLLSKTGETK
B1 was tested, and the “glycan array binding signal (z-score)” value [1] was -0.562, the “glycan array binding signal (z-score)” value [2] was -0.319 and the “glycan array binding signal (z-score)” value [3] was -0.067. For the same binder, the “glycan array binding signal (z-score)” value [4] was -0.515, the “glycan array binding signal (z-score)” value [5] was -0.445 and the “glycan array binding signal (z-score)” value [6] was -0.443. For the same binder, the “glycan array binding signal (z-score)” value [7] was -0.321, the “glycan array binding signal (z-score)” value [8] was -0.272 and the “glycan array binding signal (z-score)” value [9] was -0.15. The “glycan array binding signal (z-score)” value [10] was -0.077, the “glycan array binding signal (z-score)” value [11] was -0.084 and the “glycan array binding signal (z-score)” value [12] was 0.177. For the same binder, the “glycan array binding signal (z-score)” value [13] was -0.183, the “glycan array binding signal (z-score)” value [14] was -0.323 and the “glycan array binding signal (z-score)” value [15] was 0.024. The “glycan array binding signal (z-score)” value [16] was 0.19, the “glycan array binding signal (z-score)” value [17] was 0.303 and the “glycan array binding signal (z-score)” value [18] was -0.293. The “glycan array binding signal (z-score)” value [19] was -0.272, the “glycan array binding signal (z-score)” value [20] was 0.378 and the “glycan array binding signal (z-score)” value [21] was -0.334. The “glycan array binding signal (z-score)” value [22] was -0.072, the “glycan array binding signal (z-score)” value [23] was -0.488 and the “glycan array binding signal (z-score)” value [24] was 0.599. For the same binder, the “glycan array binding signal (z-score)” value [25] was -0.034, the “glycan array binding signal (z-score)” value [26] was -0.393 and the “glycan array binding signal (z-score)” value [27] was -0.284. For the same binder, the “glycan array binding signal (z-score)” value [28] was -0.113, the “glycan array binding signal (z-score)” value [29] was -0.3 and the “glycan array binding signal (z-score)” value [30] was -0.332.
